Assay results reported in the supplement of paper PMC10126150.
Values marked as one replicate rest on one cluster of the flow cell; about a third of the high ones do not repeat.

System: ATP
Assay: switch fluorescence ratio, 500 uM ATP over buffer (Cy3 cluster intensity, sum of 5 cycles each) (fold (ratio)); higher = stronger signal-on switching upon ATP binding; sequences stand for … in TCGTCGGCAGCGTCAGATGTGTATAAGAGACAGTTTTTTTTTTTTTTTTTTTTTTTTT…TC
Conditions: aptamer strand: ATP DNA aptamer (quencher-CACCTGGGGGAGTATTGCGGAGGAAGG + anchor), 100 nM annealed; ATP concentration: 500 uM; one replicate
Outline: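 Clusters carrying Cy3-labelled switching strands on a modified Illumina MiSeq flow-cell were annealed to 100 nM quencher-labelled ATP aptamer and imaged in selection buffer. They were imaged again after 15 min with 500 uM ATP at 22 °C, over five buffer/ATP cycles with NaOH stripping and re-annealing in between. For each cluster, the fluorescence ratio is the summed Cy3 intensity of the target cycles divided by that of the buffer cycles, averaged per switch-domain sequence. Clusters outside 100-1000 RFU were left out.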
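Also: ATP exposure 15 min at 22 °C before imaging.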

Row | Sequence | switch fluorescence ratio
1 | TTTCGAATGG | 0.997
2 | TACCAGGGTT | 1.21
3 | GGGCAGGAAA | 0.967
4 | CACCAGCCGG | 1.01
5 | GGGTGGAACG | 1.01
6 | GCCTTTGCGC | 1
7 | CTGCACCAGA | 1.08
8 | TCCCAAAATT | 1.01
9 | GGCTCAAAGA | 0.969
10 | CGGTGAGCTA | 0.996
11 | AACGTGCATA | 1.05
12 | TTGGCTTTCT | 1.01
13 | CGTTCGATTG | 1.01
14 | GGTCACTATG | 1.01
15 | GTAGCTGGGA | 1.04
16 | AACCATAATG | 1
17 | GTTCCTGCCA | 1.12
18 | TAACGGATGA | 0.966
19 | CGTCCCGAGT | 1.02
20 | GGACTTAATT | 1
21 | TTGAACGAAG | 1.01
22 | CATACGTATC | 1.44
23 | CGAGTATCGT | 0.969
24 | TTAATCTCCG | 1.08
25 | ACAGTAGGGC | 1

Row | Sequence | switch fluorescence ratio
26 | AATGAAATT | 0.986
27 | ATGACCTAAA | 1
28 | GATAGAGTCT | 1.04
29 | TTTTTCGCCC | 1.59
30 | AACGTACGAA | 1.48
31 | AAAGAAGTCC | 1.04
32 | GGTGTAGCCG | 0.979
33 | TACGTCATGG | 1.16
34 | GAGGCTTGAC | 0.978
35 | GACTAAATTA | 0.987
36 | ATTAAAGTGT | 1.02
37 | TGACTGCGCA | 1.24
38 | CGGCGCTGCG | 1.14
39 | GCATTCAGAA | 0.976
40 | CCATGTCGGG | 0.968
41 | GACAAGATTT | 1.04
42 | GAACAGGGGT | 1.04
43 | ATAAAGAGAA | 1
44 | CCGTACCTTA | 1.19
45 | TTTCTTCACG | 0.934
46 | CATACTTGCC | 1.01
47 | GGACGCCCAT | 1.01
48 | ATGATGGAAA | 1.03
49 | TCCAGGCATC | 1.08
50 | TATACCAATG | 0.991

Row | Sequence | switch fluorescence ratio
51 | GATGTAAATC | 0.963
52 | TTAATCGGGT | 0.984
53 | AGCCTCTGGT | 1.04
54 | ACCCCTATCT | 1.11
55 | GAAGTTCGCG | 1.02
56 | CATTGGATAG | 1.01
57 | AGGTATGAAG | 0.993
58 | TTGGTACGAC | 1.03
59 | CGATGGTTG | 1.06
60 | CCCCAGACCG | 1.17
61 | CCGTTGGAGT | 1.04
62 | GTATATCTGG | 0.994
63 | GACTATTTTT | 1.01
64 | TGTGTGGGTG | 0.984
65 | GGCAAGTATG | 1
66 | TACTTCGTTA | 1.03
67 | CCATGATGGG | 0.994
68 | ATCTCGAGCG | 0.993
69 | CACGCTCGTT | 1.01
70 | AATCGTACAC | 1.08
71 | AGTTCAGTGG | 1.03
72 | ATGTCAGGAT | 0.995
73 | TCCATGGCTT | 0.953
74 | GTTCGTTG | 1.03
75 | ACTATTGATT | 1.02

Row | Sequence | switch fluorescence ratio
76 | GTGATCGGTG | 0.946
77 | GCTGCATACT | 2.19
78 | TTCTCGGTCG | 0.989
79 | GTGAATTGGA | 1.01
80 | ACGCGTTCTG | 1.03
81 | GGAGGGGCTA | 0.995
82 | TTCGTGGACT | 0.99
83 | ATAATCCTCT | 1.02
84 | GCGAGTTCCA | 1.01
85 | ACTTTCAGGG | 1.01
86 | TAACTGGCCG | 0.986
87 | GATAACAAAG | 0.981
88 | TGTCGCCCCC | 1.05
89 | GTAGTCATAT | 1.08
90 | ACCTTAAGAT | 1.05
91 | GGCTCAAGG | 0.984
92 | CAATACGGCA | 1.22
93 | CGGCAGTTGA | 1.06
94 | GTATGGTCGC | 1.03
95 | AAAATTTAAG | 1.02
96 | GACGTGCATC | 1.28
97 | GGTGGTTGCG | 1.03
98 | CGAGACTTGG | 1.05
99 | GCGGAACGGC | 0.947
100 | GGGGTCCTAC | 0.971

Row | Sequence | switch fluorescence ratio
101 | GATAATCTGA | 0.97
102 | CAGATTTATT | 0.943
103 | GCTCGCCGCC | 1.09
104 | TCAGTAAACG | 1
105 | CCCTGGTATC | 1.12
106 | ACGATGCGCC | 1.06
107 | TCGAGTTGAG | 1.01
108 | CAACTTCATT | 0.962
109 | AGGTATTTTG | 0.955
110 | CTTGGCGGAT | 0.952
111 | ATGAATGTT | 0.939
112 | CGCCGCCGAG | 1.35
113 | TGATTGTTA | 0.964
114 | TATGGCATAG | 1.01
115 | ATAAACTCGA | 0.996
116 | CGCTTAGTAA | 1.01
117 | ACTCCCGAT | 1.03
118 | TAAATATCAT | 0.96
119 | GACATGAGAA | 0.999
120 | ACCGCAAACA | 3.35
121 | GTATACTTCG | 1.02
122 | GCATGACGAT | 1.04
123 | CTTGGAGGTA | 0.979
124 | TTGGGATTTC | 1
125 | GTCAAGTACG | 1.24

Row | Sequence | switch fluorescence ratio
126 | GGTGTTGCTC | 0.956
127 | CTTGAAACTT | 1.1
128 | GCACCGGTTA | 0.978
129 | CAATTCAGG | 1.01
130 | TCGAAACACC | 1.04
131 | GCTGTTTGTC | 0.989
132 | GCGTTGATCA | 0.972
133 | ACGTGCTTGT | 1.02
134 | TAAGGACCCG | 1.03
135 | CAATAGTTCG | 1.01
136 | TCACAGAACT | 1.11
137 | TATTGGAATA | 0.979
138 | TCACTATGAG | 1.05
139 | CATCTATCGT | 0.995
140 | CATAATAAAC | 1.01
141 | CGCGCCTAAC | 1.44
142 | CTTGTTTGGA | 1.02
143 | AATATCCACC | 1.07
144 | GCCAGCGCAG | 0.974
145 | AGAAGTGTGG | 1.01
146 | CAGTACAAGT | 1.03
147 | TCGCTTAAGT | 1
148 | ATAAATAGGC | 1.07
149 | TGGATAGCCA | 1.04
150 | CCTAGCGCTT | 1.75

Row | Sequence | switch fluorescence ratio
151 | CTTAAAGGCG | 0.949
152 | GTGGGAGTGT | 0.965
153 | TGAGGCACAT | 1.19
154 | CGTTTTAGCA | 1.02
155 | TCTATCAGAC | 0.993
156 | TCTCTGTGGC | 1.17
157 | ATGAAAAAGC | 1.08
158 | CGTAGAATAT | 1.02
159 | CTTCCTGTGT | 1.13
160 | TGTCCGCCGC | 2.66
161 | TTGCTTGGGT | 1.06
162 | TGCGCGAATT | 1
163 | CTAGAGCTCT | 1.02
164 | TGATACTGTT | 1
165 | CTAACAAGGT | 1.04
166 | TCGCGGCTCA | 1.11
167 | CAGCTAACCG | 1.02
168 | CAGGAAAGTA | 0.988
169 | TTAGCCTTCG | 1.33
170 | TGATTCATCG | 1.01
171 | TCGCGGCTG | 0.976
172 | TTTGACTAAA | 1.01
173 | CGGGGCTGCG | 0.993
174 | CGTAAATGGG | 0.973
175 | CAGAGAGACG | 1.06

Row | Sequence | switch fluorescence ratio
176 | TCGTACTATC | 1.05
177 | TTGCGCGTGG | 0.977
178 | GTTGAGCCCC | 1.01
179 | ATGGAATCGG | 1
180 | AGACTGACCG | 1.04
181 | AAGAATGGTG | 1.02
182 | ATGGCGATAT | 1.03
183 | CGTGTCTGCG | 0.987
184 | TCTTACCTTT | 1.05
185 | AGTTGTCATG | 0.978
186 | CTCTGCACCG | 1.27
187 | TGGAGAACGT | 1
188 | AACTCCGCTT | 4.95
189 | CGTTAACCGT | 1.03
190 | TCTGGTCCG | 1.04
191 | AATCGATTTT | 0.952
192 | GAGGTATATT | 1.02
193 | TGAGCTAGTG | 0.985
194 | TGAGATTATA | 0.995
195 | CTAGTAACAT | 1.03
196 | CCACACGAAG | 1.07
197 | GGCGAAGCAG | 0.988
198 | GAAATTGTG | 1.03
199 | TCGGGCTCTT | 1
200 | ACCTTGCGGT | 0.981
